Source: PubChem BioAssay AID686979 (National Center for Advancing Translational Sciences (NCATS), 2013)
Among all 420,000 compounds or so, about 50,000 (12%) were called active. The shares of active, inactive and inconclusive entries below differ from those in the screen. Calls follow the shape of the dose curve; as a rule, active = well fitted inhibition curve with a large enough effect; inconclusive = small, poorly fitted or top-dose-only effect; inactive = flat fitted curve, though single readings scatter. No potency is given beside an inconclusive call; the fits are too rough.

Experiment: qHTS for Inhibitors of human tyrosyl-DNA phosphodiesterase 1 (TDP1): qHTS in cells in presence of CPT; also: nearly all actives have a fitted effect of over 55% in size
Settings: chicken DT40 Tdp1-/-;hTDP1 cells + 20 nM CPT, ATP luminescence, 48 h; activity change, negative = growth inhibition: at 46.2 µM (top of the series) unless noted
How it was run: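 Chicken DT40 Tdp1-/- cells complemented with human TDP1, 400 cells/well, exposed to compounds plus 20 nM camptothecin for at least 48 h at 37 C; viability read as ATP content by CellTiter-Glo luminescence.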
% is scaled to controls: 0 for no effect and ±100 for the full control effect; potency is read from the fitted curve at half-maximal effect; tags tell the direction and shape of the fitted curve.

Question: For `COCCNC(=S)N1CCN(c2cccc(C(F)(F)F)c2)CC1`, which Potency is on record?
Answer: inconclusive [inhibitor, single point]

Question: With `O=C(NCC1CCCO1)C(=O)c1c[nH]c2ccccc12` (centres undefined) as the compound, how does the Potency read?
Answer: inconclusive [inhibitor, single point]

Question: Which Potency does the source give for `O=C(NCc1ccccc1)c1ccc(NC(=O)c2nsc3ccccc23)cc1` here?
Answer: inconclusive [inhibitor, single point]

Question: Which Potency does the source give for `Cc1nc2ccccn2c1C(=O)NCc1ccc2c(c1)OCO2` here?
Answer: inconclusive [inhibitor, partial curve, poor fit]

Question: For `CCOC(=O)/C=C/C(=O)Nc1ccc(S(=O)(=O)N2CCCCCC2)cc1`, which Potency is on record?
Answer: inconclusive [inhibitor, single point]

Question: Which Potency does the source give for `COc1ccccc1NCC(=O)NNCC(=O)Nc1ccc(F)c(Cl)c1` here?
Answer: inactive

Question: With `O=C(O)c1ccc(-n2nc(C(F)(F)F)cc2-c2cccs2)cc1` as the compound, how does the Potency read?
Answer: inactive

Question: Which Potency does the source give for `CCOc1cccc(CC(=O)Nc2ccc3nc(N4CCCCC4)cc(C)c3c2)c1OCC` here?
Answer: active: 20.6 µM

Question: With `CCCNC(=O)c1ccc(-n2c(-c3ccccc3)cc3c2CCCCC3)cc1` as the compound, how does the Potency read?
Answer: active: 18.4 µM

Question: Which Potency does the source give for `COc1ccc2nnc(-c3ccc(C(F)(F)F)cc3)n2n1` here?
Answer: inactive

Question: Which Potency does the source give for `O=C(O)CNC(=O)CCn1nnc2ccccc2c1=O` here?
Answer: inconclusive [inhibitor, single point]

Question: Which Potency does the source give for `Cc1ccc(S(=O)(=O)N(C)C[C@@H]2OCc3cnnn3CCCC(=O)N([C@H](C)CO)C[C@H]2C)cc1` here?
Answer: inconclusive [inhibitor, single point]

Question: For `COc1cc(CN(CC2CCCO2)C(=O)c2ccc(F)cc2)cc(OC)c1OC` (centres undefined), which Potency is on record?
Answer: inconclusive [inhibitor, single point]

Question: Which Potency does the source give for `CC(=O)N1CCCc2cc(S(=O)(=O)N3CCC(C(=O)NCc4ccc(N(C)C)cc4)CC3)ccc21` here?
Answer: inconclusive [inhibitor, single point]

Question: Which Potency does the source give for `CC(=O)Nc1cccc(CCc2nc3ccccc3[nH]2)c1` here?
Answer: inconclusive [inhibitor, single point]

Question: For `CSc1cccc(N=C2C(=O)Nc3ccccc32)c1`, which Potency is on record?
Answer: inactive

Question: With `Cc1ccccc1-c1noc(C(C)NC(=O)c2ccco2)n1` (centres undefined) as the compound, how does the Potency read?
Answer: inconclusive [inhibitor, single point]

Question: Which Potency does the source give for `CCOP(=O)(OCC)c1nc(/C=C/c2ccccc2)oc1NCc1ccc(OC)cc1` here?
Answer: inconclusive [inhibitor, single point]

Question: With `CCC(=O)N1CCc2cc(S(=O)(=O)NCCC(=O)NCc3ccccc3Cl)ccc21` as the compound, how does the Potency read?
Answer: inconclusive [inhibitor, single point]

Question: For `CN(C)c1ccc(CN2CCC(C(N)=O)CC2)cc1`, which Potency is on record?
Answer: inactive

Question: Which Potency does the source give for `O=S(=O)(NCC1CCCO1)c1ccc(Cl)c2ccccc12` (centres undefined) here?
Answer: inconclusive [inhibitor, single point]

Question: Which Potency does the source give for `O=C(O)CCc1nn2c3ccccc3n(Cc3ccccc3)c2nc1=O` here?
Answer: inconclusive [inhibitor, single point]

Question: For `COC(=O)c1ccc(NC(=O)c2ccccc2OCC(=O)Nc2ccc(Br)cc2)cc1`, which Potency is on record?
Answer: inconclusive [inhibitor, partial curve]

Question: For `Cc1ccc(Oc2ccc(NC(=O)c3ccco3)cc2)cc1`, which activity change, negative = growth inhibition is on record?
Answer: inconclusive: -31% [inhibitor]

Question: For `Cc1c(C(=O)N2CCC3(CC2)CC(=O)c2ccccc2O3)cccc1[N+](=O)[O-]`, which Potency is on record?
Answer: active: 18.4 µM

Question: For `COc1ccc(CN(Cc2ccccc2)C(=O)c2ccco2)cc1COc1ccc(NC(C)=O)cc1`, which Potency is on record?
Answer: inconclusive [inhibitor, partial curve]

Question: For `CCOc1ccc(OCCC(=O)N(CC)CC(=O)Nc2c(F)cccc2F)cc1`, which Potency is on record?
Answer: inactive

Question: Which Potency does the source give for `COc1cc(/C=C(/Sc2nnc(-c3ccc(F)cc3)o2)C(=O)O)ccc1OC(F)F` here?
Answer: inconclusive [inhibitor, partial curve]

Question: For `c1ccc(CN2CCN(c3nc4ccccc4c4ccccc34)CC2)cc1`, which Potency is on record?
Answer: active: 20.6 µM

Question: Which Potency does the source give for `CC(=O)NCCNc1nc2c(S(=O)(=O)c3ccc(C)c(C)c3)nnn2c2ccc(Cl)cc12` here?
Answer: inconclusive [inhibitor, single point]

Question: With `O=[N+]([O-])c1ccc(S(=O)(=O)c2cccc(C(F)(F)F)c2)nc1` as the compound, how does the Potency read?
Answer: active: 2.59 µM

Question: With `CCOC(=O)c1cnc(-n2nc(C)cc2C)nc1NNc1nc(-c2ccccc2)cc(-c2ccccc2)n1` as the compound, how does the Potency read?
Answer: active: 3.66 µM

Question: For `COc1ccc(-c2c(-c3ccsc3)oc(=O)c3cc(OC)c(OC)cc23)cn1`, which Potency is on record?
Answer: inconclusive [inhibitor, partial curve]

Question: For `COC(=O)c1ccc(-n2nnc(-c3nc(-c4ccc5c(c4)OCO5)no3)c2C)cc1`, which Potency is on record?
Answer: inactive

Question: With `CC(C)c1nc2ccc(C(=O)NCCCN3CCN(c4ccccc4F)CC3)cc2o1` as the compound, how does the Potency read?
Answer: inconclusive [inhibitor, single point]

Question: Which Potency does the source give for `O=C(NCc1csc(-c2cccs2)n1)C1CCCCC1` here?
Answer: inactive

Question: For `CC1CC(C)CN(CC(=O)Nc2cc(S(=O)(=O)N3CCOCC3)ccc2N2CCCC2)C1` (centres undefined), which Potency is on record?
Answer: inconclusive [inhibitor, single point]

Question: With `COc1cc2nc(N3CCCN(C)CC3)nc(N)c2cc1OC` as the compound, how does the Potency read?
Answer: inconclusive [inhibitor, single point]

Question: For `CC(=O)O[C@]1(C(C)=O)CC[C@H]2[C@@H]3C=CC4=CC(=O)C=C[C@]4(C)[C@H]3CC[C@@]21C`, which Potency is on record?
Answer: inconclusive [inhibitor, single point]

Question: With `Cc1nc(N2CCN(c3ccccc3)CC2)[nH]c(=O)c1CCC(C)C` as the compound, how does the Potency read?
Answer: inactive

Question: With `CCOC(=O)c1ccc(NC(=O)C2CCCN(c3ccc(Sc4ccc(C)cc4)nn3)C2)cc1` (centres undefined) as the compound, how does the Potency read?
Answer: inconclusive [inhibitor, single point]

Question: For `CCN(CCCCN1C(=O)c2ccccc2C1=O)c1ccc2c(c1)C(=O)N(C)C2=O`, which Potency is on record?
Answer: inconclusive [inhibitor, single point]

Question: Which Potency does the source give for `C[C@@H](NS(=O)(=O)c1ccc(Br)cc1F)[C@@H](O)c1ccccc1` here?
Answer: inconclusive [inhibitor, single point]

Question: Which Potency does the source give for `N/C(COc1ccc(F)cc1)=N\NC(=O)c1cccnc1Oc1ccccc1` here?
Answer: inconclusive [inhibitor, single point]
